Measured values from the RNAGym collection of RNA variant scans (doi:10.1073/pnas.2313332121).
Variants at the floor of the assay are shown more often than the library holds them.

B1: TPR 5TU (parent)
chain: GGAUCUUCUCGAUCUAACAAAAAAGACAAAUCUGCCACAAAGCUUGAGAGCAUCUUCGGAUGCAGAGGCGGCAGCCUUCGGUGGCGCGAUAGCGCCAACGUUCUCAACUAUGACACGCAAAACGCGUGCUCCGUUGAAUGGAGUUUAUCAUG

Variants of: B1
Test: polymerase ribozyme fitness, log enrichment relative to wild type (log ratio); higher = more active; in vitro selection for triplet polymerase activity
Summary of the method: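 To select mutant libraries of each subunit of a heterodimeric triplet polymerase ribozyme, built by PCR and transcribed, each was annealed with a biotinylated primer, partner subunit and triplets, then incubated frozen at −7 °C. Extended constructs were gel-excised, captured on streptavidin beads and amplified by RT-PCR, in one round carried out in triplicate. Illumina sequencing of input and output libraries kept genotypes with ≥10 input reads and ≥1 read per output. Fitness is the base-2 logarithm of genotype enrichment relative to wild-type enrichment, from inverse-variance-weighted replicate averages.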

Variant	polymerase ribozyme fitness (log ratio)
GGAUCUUCUCGAUCUAACAAAGAAGACAAAUCUGCCACAAAGCUUGAGAGCAUCUUCGGAUGCAGAGGCGGCAGCCUUCGGUGGCGUGAUAGCGCCAACGUUAUCAACUAUGACACGCAAAACGCGUGCUCCGUUGGAUGCAGUUUAUCAUG	≤ -4.2
GGAUCUUCUCGAUCUAACAAAUCAAACAAAUCUGCCACAAAUCUUGAGAGCAUCAUCGGAUGCAGAGGCGGCAGCCUUCGGUGGCGCUAUAGCGCCAUCGUUCUCAACUAUGACACGCGAAACGCGUGCUCCGUUGAAUGGAAUUUAUCAUG	≤ -4.2
GGAUCUUCUCGAUCUAACAAAGAAGACAAAUCUGCCACAAAGCUUGAGAGCAUCUUCGGAUGCAGAGGCGGCAGCCUUCGGUGGGGCGAUUGCACCAACGUUCUCAACUAUGACACGCAAAACGCGUGCUCCGUUGAAUGGAGUUUAUCAUG	≤ -4.2
GGAUCUUCUCGAUCUAACAAAGAAGACAAAUCUGCCACAAAGCUUGAGAGCAUCUUCGGAUGCAGAGGCGGCAGCCUUCGGUGGCUCGAGAGCGCCAACGUUCUUAACUAUGACACGCAAAACGCGUGCUCCGUUGAAUGGAGUUUAUCAUG	≤ -4.2
GGAUCUUCUCGAUCUAACAAAGAAGACAAAUCUGCCACAAAGCAUGAGAGCAUCUUCGGAUGCAGAGGCGGCAGCCUUCGGUGGAGCGAUAGCGCCAACGUUCUCAACUAUGACACGCAAAACGCGUGCUCCGUUGAAUGGAGUUUAUCAUG	≤ -4.2
GGAUCUUCUCGAUCUAACAAAGAAGACAAACCUGCCACAAAGCUUGAGAGCAUCAUCGGAUGCAGAGGCGGCAGCCUUCGGUGGCGCGAUAGGGCCAACGUUCUCAAAUAUGACACGCAAAACGCGUGCUCCGUUGAAUGGAGUUUAUCAUG	≤ -4.2
GGAUCUUCUCGAUCUAACAAAGAAGACAAAUCUGCCACAAAGCUUGAGAGCAUUUUCGGAUGCAGAGGCGGCAGCCUUCGGUGGCGCGAUAGCGCCAACGUUCUCAACUAUGACACGCAAAACGCGUGCUCCGUUGAAUGGAGUUUAUCAUG	0.651
GGAUCUUCUCGAUCUAACAAAUACGACAAAUCUGCCACAAAGCAGGAGAGCAUCUUCGUAUGCAGAGGCGGCAGCCUUCGGUGGCGCGGUAGCGCCAACGUUCUCAACUAUGACACGCAUAACGCGCGCUCCGUUGAAUGGAGUUUAUCAUG	≤ -4.2
GGAUCUUCUCGAUCUAACAAAGAAGACAAAUCUGCCACAAAGCUUGAGAGCAUCUUCGGAUGCAGAGGCGGCAGCCUUCGGUGGCGCGAUAGCGCAAACGUUCUCAACUAUGACACGCAAAACGCGUGCUCCGUUGAAUGGAGUUUAUCAGG	≤ -4.2
GGAUCUUCUCGAUCUAACAAAGAAGACAAAUCUGCCACAAAGCUUGAGAGCAUCUUGGGAUGCAGAGGCGGCAGCCUUCGGUGGCGCGAUAGCGCCAACGUUCUCAACUAUGACACGCAAAACGCGUGCUCCGUUGAAUAGAGUUUAUCAUG	≤ -4.2
GGAUCUUCUCGAUCUAACAAAGAAGACAAAUCUGCCACAAAGCUUGAGAGCAUCUUCGGAUGCAGAGGCGGCAGCCUUCGGUGGCGAGAUAUCGCCAACGUUCUCAACUAUGACACGCAAAACGCGUGCUCCGUUCAAUGGAGUUUAUCCUG	≤ -4.2
GGAUCUUCUCGAUCUAACAAAUAAGACUAAUCUGCCACAAAGCUUGAGAGCAUCUUCGGAUGCAGAUACGGCAGCCUUCGGUGACGCGAUAGCGCCAACGUUCUCAACUAUGACACGCAAAACGCGUACUCCGUUGAAUGGAGUUUAUCAUG	≤ -4.2
GGAUCUUCUCGAUCUAACAAAUCAGACAAAUCUGCCACAAAGCUUGAGAGCAUCUUCGGAUGCAGAGGCGGCAGCCUUCGGUGGCGCGAUAGCGCCAACGUUCUCAACUAUGACACGCAAAACGCGUGCUCCGUUGAAUGGAGUUUAUCAUG	-4
GGAUCUUCUCGAUCUAACAAAUUAGACAAAUCUGCCACAAAGCUUGAGAGCAUCUUCGGAUGCAGAGUCGGCAGUUUUCGGUGGCGCGAUAUCGCCAACGUUCUCAACUAUGACACGCAAAACGCGUGCUCCGUUGAAUGGAGUUUAUCAUG	≤ -4.2
GGAUCUUCUCGAUCUAACAAAUAAGACUAAUCGGCCACAAAGCUUGAGAGCAUCUUGGGAUGCAGAGGCGGCAGCCUUCGGUGGCACGAUAGCGCCAACGUUCUCAACUAUGACACGCAAAACGCGUGCUCCGUUGUAUGGAGUUUAUCCUG	≤ -4.2
GGAUCUUCUCGAUCUAACAAAGAAGACAAAUCUGCCACAAAGCUUGAGAGCAUAUUCGGAGGCAGAGGCGGCAGCCUUCGGUGGACCGAUAGCGCCAACGUUCUCAACUAUGACACGCAAAACGCGUGCUCCGUUGACUGGACGUUAUCAUG	≤ -4.2
GGAUCUUCUCGAUCUAACAAAGAAGACAAAUCUGCCACAAAGCUUGAGAGCACCUUCGGAUGCAGAGGCGGCAGCCUUCGGGGGCGCGAUAGCGCCAUCGUUCUCAACUAUGACACGCAAAACGCGUGCUCCGUUGAAUGGAGUUUAUCAUG	0.397
GGAUCUUCUCGAUCUAACAAAGAAGACAAAUCUGCCACAAAGCUUGAGAGCAUCUUCGGAUGCAGAGGCGGCACCCUUCGGUGGCACGAUAGCGCCAACGUUCUCAACUAUGACACGCAAAACGCGUGCUCCGUUGAAUGGUGUGUAUCAUG	≤ -4.2
GGAUCUUCUCGAUCUAACAAAUAAGACCAAUCUGCCACAAAGCUUGAGAGCAUCUUCGGAUGCAGAGGCGGCAGCCUGCGGUGGCGCGAUAUCGCCAACGUUCUCAACUAUGACACGCAAAACGCGUGCUCCGUUGAAUGGAGUUUAUCAUG	≤ -4.2

Variant	polymerase ribozyme fitness (log ratio)
GGAUCUUCUCGAUCUAACAAAGAAGACAAAUCUGCCACAAAGCUUGAGAGCAUCUUCAGAUGCAGAGGCGGCAGACUUCGGUGGCUCGAUAGCGCCAAAGUUUUCAACUAUGACACGCAAAACGCGUGCUCCGUUGAAUGCAGUUUAUCAUG	≤ -4.2
GGAUCUUCUCGAUCUAACAAAGAAGACAAAUCUGCCACAAAGCAUGAGAGCAUCUUCGGAUGCAGAGGCGGCAGCCUUCGUUGGCGCGAUAGCGCCAACGUUCUCAACUAUGACAUGCAAAACGCGUGCUCCGUGGAAUGGAGUUUAUCAUG	≤ -4.2
GGAUCUUCUCGAUCUAACAAAUAAGCCAAAUCUGCCACAAAGCUUGAGAGCAUCUUCGGAUGCAGAGGCGGCAGCCUUCGGUGGCGUGAGAGCGCAAACGUUCUCAACUAUGACACGCAAAACGCGUGCUCCGUUGAAUGGAGUUUAUCACG	≤ -4.2
GGAUCUUCUCGAUCUAACAAAGAAGACAAAUCUGCCACAAAGCUUGAGAGCAUCUGCGGAUGCCGAGGCGGCAGCCUUCGGUGGCGCGAUAGCGCCAACGUUCUCAACGAUGACAGGCAAAACGCGUGCUCCGUUGAAUGGAGGUUAUCAUG	≤ -4.2
GGAUCUUCUCGAUCUAACAAAUAUGACAAAUCUGCCACAAAGCAUGAGAGCAUCUUCGGAUGCAGAGGCGGCAGCCUUCGGUGGCGCGAUAGAGCUAACGUUCUCAACUAUGACACGUAAAACGCGUGCUCCGUUGAAUGGAGUUUAUCAUG	≤ -4.2
GGAUCUUCUCGAUCUAACAAAGAAGACAAAUCUUCCAAAAAGCUUGAGAGCAUCUUCGGAUGCAGAGGCGGCAGCCUUCGGUGGCGCGAUAGCGACAACGUUCUCAACUAUGACACGCAAAACGCGUGCUCCGUUGAAUCGAGUUUAUCAUG	≤ -4.2
GGAUCUUCUCGAUCUAACAAAUCAGACAGAUCUGCCACAAAUGUUGAGAGCAUCUUCUGAUGCAGAGGCGGCAGCCUUCGGUGGCGCGAUAGCGCCAAUGGUCUCAACUUUGACACGCAAAACGCGUGCUCCGUUGAAUGGAGUUUAUCAUG	≤ -4.2
GGAUCUUCUCGAUCUAACAAAGAAGACAAAUCUGCCACAAAGCUAGAGAGCAUCUUCGGAUGCAGAGGCGGCAGCCUUCGGUGGCGCGAUUGCGCCAACGUUCUAAAGUAUGACACGCAAAACGCGUGCUCCGUUGAAUGGAGUUUAUCAUG	≤ -4.2
GGAUCUUCUCGAUCUAACAAAGAAGACAAAUCUGCCACAAAGCUUGAGAGCAUCUUCGGAUGCAGAGGCGGCAGCCUUCGGUGGCGCGAUAGCGCCAACAUUCUCAACUAUGACACGCAAAACGCGUGCUCCGUUGAAUGGAGUUUAUCAUG	≤ -4.2
GGAUCUUCUCGAUCUAACAAAGAAGACAAAUCUGCCACAAAGCUUGAGAGCAUCUUCGGAGGCAGAGGCGGCAGCCUUCGGUGGCGCGAUAGCGCCAACGUUGUCAACUAUGACACGCAAAACGCGUGCUCCGUUGAAUGGAGUUUAUCAUG	≤ -4.2
GGAUCUUCUCGAUCUAACAAAUAUGACAAAUCUGCCACAAAGCUUGAGAGCAUCUUCGGAUGCAGAGGCGGCAGCCUUCGGUGGCGCGAUAGUGCCAACGUUCUCAACUAUGACACGCAAAACCCGUGCUCCAUUGAAUGGAGUUUAUCAUG	≤ -4.2
GGAUCUUCUCGAUCUAACAAAUAAGCCAAAUCUGCCACAAAGCUUGCGAGCAUCUUAGGAUACAGAGGCGGCAGCCUUCGGUGGCACGUUAGCGCCAACGUUCUCUAGUAUGACACGCAAAACGCGUGCUCCGUUGAAUGGAGUUUAUCAUG	≤ -4.2
GGAUCUUCUCGAUCUAACAAAUAGGACAAAUCUGCCACAAAGUUUGAGAGCAUCUUCGGAUGCAGAGGCGGCAGCCUUCGGUGGCGCGAUAGCGUCAACGUUCUCAACUAUGACACGCAAAACGCGUGCUCCGUUGAAUGGAGUUUAUCAUG	≤ -4.2
GGAUCUUCUCGAUCUAACAAAGAAGACAAAUCUGCCACAAAGCUUGAGAGCAUCUUCGGAUGCAGAGGCGGCAGUCUUCGGUGGCGAGAUAGCGCCAACGUUCUCAACUAUGACACGCAAAACGCGUGCUCCGUUGAAUGCCGUUUAUCAUG	≤ -4.2
GGAUCUUCUCGAUCUAACAAAGAAGACAAAUCUGCCACAAAGCUUGAGAGCACUUUCGGAUGCAGAGGCGGCAGCCUCCGGUGGCGCGAUAGCGCCAACGUUCUCAACUAUGACACACAAAACGCGUGCUCCGUUGAAUGGAGUUUAUCAUG	-1.92
GGAUCUUCUCGAUCUAACAAAGAAGACAAAUCUGCCACAAAGCUUGAGAGCAUCUUCGGAUGCAGAGGCGGCAGCCUUCGGUGGUGCGAUAGCGCCAACGUUCUCAACUAUGACACGCAAAACGCGUGCUCCCUUGAAUGGAGUUUAUCAUG	-1.48
GGAUCUUCUCGAUCUAACAAAGAAGACAAAUCUGCCACAAAGCUUGAGAGCAUCUUUGGAUGCAGAGGCAGCAGCCUUCGGUGGCGCGAUCGCGCCAACGUUCUCAACUAUGACACGCAAAACGCGUGCUCCGUUGAAUGGAGUUUAUCAUG	≤ -4.2
GGAUCUUCUCGAUCUAACAAAGAAGACAAAUCUGCCACAAAGCUUGAGAGCAUCUUCGGAUACAGAGGCGGCAGCAUUCGGUGGCGCGAUAGUGCCAACGUUCUCAACUAUGACACGCAAAACGCGUGCUCCGUUGAGUGGAGUUUAUCAUG	≤ -4.2
GGAUCUUCUCGAUCUAACAAAUAAGCCAAAUCUGCCACAAUGCUUGAGAGCAUCUUCGGAUGCAGAGGCGGCAGCCUUCGGUGGCGCGAUAGCGCCAACGUUUUCAACUAUGACACGAAAAACGCGUGCUCCGUUGAAUGGAGUUUAUCAUG	≤ -4.2
